Read-outs that look alike come from different tables or passages of the source.
Legend:
[1] = Plasma free fraction (fu) and unbound Cmax (Cmax,u); format: in vitro ADME, human; conditions: unbound plasma Cmax
[2] = cited from earlier work; for DILI severity category (Chen 2016): human DILI classification, LTKB DILIrank
[3] = tested on: primary human hepatocytes, NIH3T3 fibroblasts, BSEP, CYP3A4; conditions: cited from earlier work
HepG2 cells [4] = conditions: Structural based (HCI), ref O'Brien et al. 2006; cited from earlier work
HepG2 cells [5] = conditions: Structural based (HCI), ref Persson et al. 2013; cited from earlier work
HepG2 cells [6] = conditions: Structural based (HCI), ref Tolosa et al. 2012; cited from earlier work
human hepatocytes = conditions: cited from earlier work
[7] = tested on: THLE or HepG2 cells, isolated mitochondria, BSEP; conditions: cited from earlier work; for Rule of Two hybrid HRM Score ≥3, Aleo (2019) / Rule of Two hybrid HRM Score ≥8, Aleo (2019): Modeled in vitro assays (cytotoxicity, mitochondrial dysfunction, BSEP), ref Aleo et al. 2019
PHH = conditions: 2D PHH, ATP, IC50 < 100 × Cmax.tot; ref Proctor et al. 2017; cited from earlier work
hLiMTs [8] = conditions: ATP, IC50 < 100 × Cmax.tot, ref Proctor et al. 2017; cited from earlier work
PHH spheroids = conditions: cited from earlier work; for hLiMTs ATP <20 x Cmax: In vitro Assay, ref Vorrink 2018
[9] = tested on: HepG2 C3A spheroid, BSEP, Glu/Gal in HepG2 cells, bioactivation; conditions: cited from earlier work; for Bayesian Machine Learning DILI prediction, Williams (2019): Bayesian modeling, ref Williams et al. 2019; for Bayesian Machine Learning: In vitro Assay, ref Williams 2019
[10] = read-out: Human plasma Cmax; total plasma Cmax.tot, median of 9 literature references; cited from earlier work
[11] = plasma free fraction; cited from earlier work
[12] = cited from earlier work; for Assigned DILI category: Chen et al. 2016 or literature alignment, ref Chen et al. 2016
[13] = tested on: THLE-Null and THLE-3A4 cells; conditions: In vitro Assay; ref Gustafsson 2014; cited from earlier work
[14] = tested on: HepG2 cells, primary human hepatocytes; conditions: In vitro Assay; ref Garside 2014; cited from earlier work
[15] = tested on: isolated mouse liver mitochondria; conditions: In vitro Assay; ref Porceddu 2012; cited from earlier work
Upcyte human hepatocytes = conditions: In vitro Assay; ref Tolosa 2019; cited from earlier work
[16] = ref Chen 2011; cited from earlier work
hLiMTs [17] = assay: Combined HCI (HCS) and cellular ATP 3D assay in hLiMTs; conditions: for DILI prediction hLiMTs (HCS-MEC): Microtissue model structural based (HCI), combined HCS and ATP, MEC < 25 × Cmax.tot cut-off; for hLiMTs <25x Avg Cmax ATP / hLiMTs <100x Avg Cmaxu ATP: ATP endpoint; for hLiMTs <25x Avg Cmax ATP / hLiMTs <25x Avg Cmax HCS / hLiMTs <25x Avg Cmax All: cut-off <25x Avg Cmax; for hLiMTs <100x Avg Cmaxu ATP / hLiMTs <100x Avg Cmaxu HCS / hLiMTs <100x Avg Cmaxu All: cut-off <100x Avg Cmaxu; for hLiMTs <25x Avg Cmax HCS / hLiMTs <100x Avg Cmaxu HCS: HCS endpoints; for hLiMTs <25x Avg Cmax All: all endpoints (ATP and HCS); for hLiMTs Cmax max All / hLiMTs Cmax min All / hLiMTs <100x Avg Cmaxu All: all endpoints; for hLiMTs Cmax max All: Cmax max used; for hLiMTs Cmax min All: Cmax min used
HepaRG spheroids = assay: Combined HCI (HCS) and cellular ATP 3D assay in HepaRG spheroids; conditions: for HepaRG <25x Avg Cmax ATP / HepaRG <100x Avg Cmaxu ATP: ATP endpoint; for HepaRG <25x Avg Cmax ATP / HepaRG <25x Avg Cmax HCS / HepaRG <25x Avg Cmax All: cut-off <25x Avg Cmax; for HepaRG <100x Avg Cmaxu ATP / HepaRG <100x Avg Cmaxu HCS / HepaRG <100x Avg Cmaxu All: cut-off <100x Avg Cmaxu; for HepaRG <25x Avg Cmax HCS / HepaRG <100x Avg Cmaxu HCS: HCS endpoints; for HepaRG <25x Avg Cmax All: all endpoints (ATP and HCS); for HepaRG Cmax max All / HepaRG Cmax min All / HepaRG <100x Avg Cmaxu All: all endpoints; for HepaRG Cmax max All: Cmax max used; for HepaRG Cmax min All: Cmax min used
rBsep = conditions: In vitro Assay; ref Dawson 2012; cited from earlier work
[18] = human DILI severity, ref Chen et al.
[19] = In vitro Assay, ref Schadt 2015

CCCCc1oc2ccccc2c1C(=O)c1cc(I)c(OCCN(CC)CC)c(I)c1 [amiodarone, reference compound]
Human plasma Cmax,u [1]: 89 nM | DILI severity category (Chen et al. [2016]) ([2]; LTKB DILIrank category, ref Chen et al. 2016): Most | DILI severity category (Chen 2016) ([2]; ref Chen et al. 2016): Most | DILI severity category [2, 18]: Most | DILI +VE (5-8), DILI -VE (-4) ([2]; ref Chen 2016): +VE | DILI severity category ([2]; ref Chen 2016): vMost-DILI-Concern | DILI in vitro assay prediction, Schadt (2015) ([3]; BSEP & Metabolism based, ref Schadt et al. 2015): +VE | Cellular toxicity (3T3 cells) [3, 19]: +VE | Combined Assay [3, 19]: +VE | GSH adduct HML [3, 19]: -VE | Hepatocyte cellular toxicity [3, 19]: -VE | MitoTox 3T3 [3, 19]: -VE | TDI CYP3A4 [3, 19]: -VE | hBSEP inhibition [3, 19]: -VE | DILI in vitro assay prediction, O'Brien (2006) (HepG2 cells [4]): +VE (lowest HCI endpoint IC50 (or in the absence of dose–response < 100 µM) < 30 × total human plasma exposure levels (Cmax.tot)) | DILI in vitro assay prediction, Persson (2013) (HepG2 cells [5]): +VE | DILI in vitro assay prediction, Tolosa (2012) (HepG2 cells [6]): +VE | Structural based (HCI) (human hepatocytes; In vitro Assay, ref Xu 2008): +VE | DILI in vitro assay prediction, Xu (2008) (human hepatocytes; Structural based (HCI), human hepatocytes, ref Xu et al. 2008): +VE | Rule of Two hybrid HRM Score ≥3, Aleo (2019) [7]: +VE (Rule of Two hybrid HRM Score ≥3) | Rule of Two hybrid HRM Score ≥8, Aleo (2019) [7]: +VE (Rule of Two hybrid HRM Score ≥8) | PHH/100xCmax, Proctor (2017) (PHH): +VE (IC50 < 100 × Cmax.tot) | hLiMTs/100xCmax, Proctor (2017) (hLiMTs [8]): +VE (IC50 < 100 × Cmax.tot) | hLiMTs ATP <20 x Cmax (PHH spheroids): +VE (IC20 < 20 × Cmax.tot cut-off) | DILI in vitro assay prediction, Vorrink (2018) (PHH spheroids; PHH spheroids, ATP, 14 days, IC20 < 20 × Cmax.tot, ref Vorrink et al. 2018): +VE (IC20 < 20 × Cmax.tot cut-off) | Bayesian Machine Learning DILI prediction, Williams (2019) [9]: +VE | Bayesian Machine Learning [9]: +VE | Cmax [10]: 4450 nM | fu [11]: 0.020 | Assigned DILI category [12]: 3 | In vivo DILI ([12]; […]): +VE | In vivo DILI ([12]; ref Garside 2014): +VE | In vivo DILI ([12]; ref Gustafsson 2014): +VE | In vivo DILI ([12]; ref O'Brien 2006): +VE | In vivo DILI ([12]; ref Persson 2013): +VE | In vivo DILI ([12]; ref Porceddu 2012): +VE | In vivo DILI ([12]; ref Proctor 2017): +VE | In vivo DILI ([12]; ref Schadt 2015): +VE | In vivo DILI ([12]; ref Tolosa 2012): +VE | In vivo DILI ([12]; ref Tolosa 2019): +VE | In vivo DILI ([12]; ref Vorrink 2018): +VE | In vivo DILI ([12]; ref Williams 2019): +VE | In vivo DILI ([12]; ref Xu 2008): +VE | THLE-Null/3A4 [13]: +VE | Cluster 1-6 +VE Assay [14]: +VE | in vitro data EC2<=1x Cmax [15]: +VE | Upcytes multi donor assay 14day data (Upcyte human hepatocytes): +VE | DILI Score (FDA) (1-8) [16]: 8 | DILI prediction hLiMTs (HCS-MEC) (hLiMTs [17]): +VE (MEC < 25 × Cmax.tot cut-off) | hLiMTs <25x Avg Cmax ATP (hLiMTs [17]): +ve | hLiMTs <100x Avg Cmaxu ATP (hLiMTs [17]): +ve (<100x Avg Cmaxu) | hLiMTs <25x Avg Cmax HCS (hLiMTs [17]): +ve | hLiMTs <100x Avg Cmaxu HCS (hLiMTs [17]): +ve (<100x Avg Cmaxu) | hLiMTs <25x Avg Cmax All (hLiMTs [17]): +ve | hLiMTs Cmax max All (hLiMTs [17]): +ve | hLiMTs Cmax min All (hLiMTs [17]): +ve | hLiMTs <100x Avg Cmaxu All (hLiMTs [17]): +ve (<100x Avg Cmaxu) | HepaRG <25x Avg Cmax ATP (HepaRG spheroids): +ve | HepaRG <100x Avg Cmaxu ATP (HepaRG spheroids): -ve | HepaRG <25x Avg Cmax HCS (HepaRG spheroids): +ve | HepaRG <100x Avg Cmaxu HCS (HepaRG spheroids): +ve (<100x Avg Cmaxu) | HepaRG <25x Avg Cmax All (HepaRG spheroids): +ve | HepaRG Cmax max All (HepaRG spheroids): +ve | HepaRG Cmax min All (HepaRG spheroids): +ve | HepaRG <100x Avg Cmaxu All (HepaRG spheroids): +ve (<100x Avg Cmaxu) | DILI prediction HepaRG spheroids (HCS-MEC) (HepaRG spheroids; Microtissue model structural based (HCI), combined HCS and ATP, MEC < 25 × Cmax.tot cut-off): +VE (MEC < 25 × Cmax.tot cut-off)

NS(=O)(=O)c1cc(C(=O)O)c(NCc2ccco2)cc1Cl [furosemide, reference compound]
hLiMTs ATP <20 x Cmax (PHH spheroids): -VE | Inhibition of rBsep cutoff<1& cmax u>.2 (rBsep): -VE | Inhibition of rBsep cutoff<3 (rBsep): -VE

NCCCC(O)(P(=O)(O)O)P(=O)(O)O [alendronate]
Human plasma Cmax,u [1]: 4 nM | DILI severity category (Chen 2016) ([2]; ref Chen et al. 2016): Less | DILI severity category [2, 18]: Less | DILI +VE (5-8), DILI -VE (-4) ([2]; ref Chen 2016): +VE | DILI severity category ([2]; ref Chen 2016): vLess-DILI-Concern | Ro2 Hybrid HRM Score ([7]; In vitro Assay, ref Aleo 2019): -VE | Rule of Two hybrid HRM Score ≥3, Aleo (2019) [7]: -VE | Rule of Two hybrid HRM Score ≥8, Aleo (2019) [7]: -VE | PHH/100xCmax, Proctor (2017) (PHH): -VE | hLiMTs/100xCmax, Proctor (2017) (hLiMTs [8]): -VE | Bayesian Machine Learning DILI prediction, Williams (2019) [9]: -VE | Bayesian Machine Learning [9]: -VE | fu [11]: 0.220 | Assigned DILI category [12]: 2 | In vivo DILI ([12]; ref Aleo 2019): +VE | In vivo DILI ([12]; ref Proctor 2017): -VE | In vivo DILI ([12]; ref Williams 2019): -VE | DILI prediction hLiMTs (HCS-MEC) (hLiMTs [17]): -VE | hLiMTs <25x Avg Cmax ATP (hLiMTs [17]): -ve | hLiMTs <100x Avg Cmaxu ATP (hLiMTs [17]): -ve | hLiMTs <25x Avg Cmax HCS (hLiMTs [17]): -ve | hLiMTs <100x Avg Cmaxu HCS (hLiMTs [17]): -ve | hLiMTs <25x Avg Cmax All (hLiMTs [17]): -ve | hLiMTs Cmax max All (hLiMTs [17]): -ve | hLiMTs Cmax min All (hLiMTs [17]): -ve | hLiMTs <100x Avg Cmaxu All (hLiMTs [17]): -ve | HepaRG <25x Avg Cmax ATP (HepaRG spheroids): +ve | HepaRG <100x Avg Cmaxu ATP (HepaRG spheroids): +ve (<100x Avg Cmaxu) | HepaRG <25x Avg Cmax HCS (HepaRG spheroids): -ve | HepaRG <100x Avg Cmaxu HCS (HepaRG spheroids): -ve | HepaRG <25x Avg Cmax All (HepaRG spheroids): +ve | HepaRG Cmax max All (HepaRG spheroids): +ve | HepaRG Cmax min All (HepaRG spheroids): +ve | HepaRG <100x Avg Cmaxu All (HepaRG spheroids): +ve (<100x Avg Cmaxu)

Source: paper PMC7395068, “The evolution of strategies to minimise the risk of human drug-induced liver injury (DILI) in drug discovery and development” (Archives of Toxicology, 2020)
